# Experimental data: the supplement of paper PMC8728848
# The list shows a part of the results.
# B1: MAA (Maackia amurensis), P0DKL3 (protein)
# chain: MATSNSKPTQVLLATFLTFFFLLLNNVNSSDELSFTINNFVPNEADLLFQGEASVSSTGVLQLTRVENGQPQKYSVGRALYAAPVRIWDNTTGSVASFSTSFTFVVKAPNPDITSDGLAFYLAPPDSQIPSGSVSKYLGLFNNSNSDSSNQIVAVELDTYFAHSYDPWDPNYRHIGIDVNGIESIKTVQWDWINGGVAFATITYLAPNKTLIASLVYPSNQTTFSVAASVDLKEILPEWVRVGFSAATGYPTEVETHDVLSWSFTSTLEANCDAATENNVHIARYTA
# What was measured:
# Assay in all cases: glycan array binding signal (z-score within array); higher = stronger binding
# Settings in all cases: glycan notation: IUPAC condensed, linker removed
# [1] = target: Fuc(a1-4)GlcNAc
# How it was run: (§1)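 The binding signal is a Z-score computed within each array. Data were drawn from 3228 arrays in the Consortium for Functional Glycomics database, restricted to those with a known protein sequence. Scores were averaged over arrays of the same protein sequence at different concentrations or buffers, and over linkers, and negative values can be taken as non-binding.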
# [2] = target: Fuc(b1-3)GlcNAc
# How it was run: as §1
# [3] = target: Gal(a1-2)Gal
# How it was run: as §1
# [4] = target: Gal(a1-3)Gal
# How it was run: as §1
# [5] = target: Gal(a1-3)Gal(b1-3)GlcNAc
# How it was run: as §1
# [6] = target: Gal(a1-3)Gal(b1-3)GlcNAc(b1-2)Man
# How it was run: as §1
# [7] = target: Gal(a1-3)Gal(b1-3)GlcNAc(b1-2)Man(a1-3)[Gal(a1-3)Gal(b1-3)GlcNAc(b1-2)Man(a1-6)]Man(b1-4)GlcNAc(b1-4)GlcNAc
# How it was run: as §1
# [8] = target: Gal(a1-3)Gal(b1-3)GlcNAc(b1-3)GalNAc
# How it was run: as §1
# [9] = target: Gal(a1-3)Gal(b1-3)GlcNAc(b1-6)GalNAc
# How it was run: as §1
# [10] = target: Gal(a1-3)Gal(b1-3)[Fuc(a1-4)]GlcNAc(b1-2)Man(a1-3)[Gal(a1-3)Gal(b1-3)[Fuc(a1-4)]GlcNAc(b1-2)Man(a1-6)]Man(b1-4)GlcNAc(b1-4)GlcNAc
# How it was run: as §1
# [11] = target: Gal(a1-3)Gal(b1-4)Glc
# How it was run: as §1
# [12] = target: Gal(a1-3)Gal(b1-4)GlcNAc
# How it was run: as §1
# [13] = target: Gal(a1-3)Gal(b1-4)GlcNAc(b1-2)Man
# How it was run: as §1
# [14] = target: Gal(a1-3)Gal(b1-4)GlcNAc(b1-2)Man(a1-3)[Gal(a1-3)Gal(b1-4)GlcNAc(b1-2)Man(a1-6)]Man(b1-4)GlcNAc(b1-4)GlcNAc
# How it was run: as §1
# [15] = target: Gal(a1-3)Gal(b1-4)GlcNAc(b1-3)GalNAc
# How it was run: as §1
# [16] = target: Gal(a1-3)Gal(b1-4)GlcNAc(b1-6)GalNAc
# How it was run: as §1
# [17] = target: Gal(a1-3)Gal(b1-4)[Fuc(a1-3)]GlcNAc
# How it was run: as §1
# [18] = target: Gal(a1-3)Gal(b1-4)[Fuc(a1-3)]GlcNAc(b1-2)Man(a1-3)[Gal(a1-3)Gal(b1-4)[Fuc(a1-3)]GlcNAc(b1-2)Man(a1-6)]Man(b1-4)GlcNAc(b1-4)GlcNAc
# How it was run: as §1
# [19] = target: Gal(a1-3)GalNAc
# How it was run: as §1
# [20] = target: Gal(a1-3)[Gal(a1-4)]Gal(b1-4)GlcNAc
# How it was run: as §1
# [21] = target: Gal(a1-4)Gal(b1-3)GlcNAc(b1-2)Man(a1-3)[Gal(a1-4)Gal(b1-3)GlcNAc(b1-2)Man(a1-6)]Man(b1-4)GlcNAc(b1-4)GlcNAc
# How it was run: as §1
# [22] = target: Gal(a1-4)Gal(b1-4)Glc
# How it was run: as §1
# [23] = target: Gal(a1-4)Gal(b1-4)GlcNAc
# How it was run: as §1
# [24] = target: Gal(a1-4)Gal(b1-4)GlcNAc(b1-2)Man(a1-3)[Gal(a1-4)Gal(b1-4)GlcNAc(b1-2)Man(a1-6)]Man(b1-4)GlcNAc(b1-4)GlcNAc
# How it was run: as §1
# [25] = target: Gal(a1-4)Gal(b1-4)GlcNAc(b1-3)Gal(b1-4)Glc
# How it was run: as §1
# [26] = target: Gal(a1-4)GlcNAc
# How it was run: as §1
# [27] = target: Gal(a1-6)Glc
# How it was run: as §1
# [28] = target: Gal(b1-2)Gal
# How it was run: as §1
# [29] = target: Gal(b1-3)Gal
# How it was run: as §1
# [30] = target: Gal(b1-3)Gal(b1-4)GlcNAc
# How it was run: as §1
# [31] = target: Gal(b1-3)GalNAc
# How it was run: as §1
# [32] = target: Gal(b1-3)GalNAc(a1-3)[Fuc(a1-2)]Gal(b1-4)Glc
# How it was run: as §1
# [33] = target: Gal(b1-3)GalNAc(a1-3)[Fuc(a1-2)]Gal(b1-4)GlcNAc
# How it was run: as §1
# [34] = target: Gal(b1-3)GalNAc(b1-3)Gal
# How it was run: as §1
# [35] = target: Gal(b1-3)GalNAc(b1-3)Gal(a1-4)Gal(b1-4)Glc
# How it was run: as §1
# [36] = target: Gal(b1-3)GalNAc(b1-4)Gal(b1-4)Glc
# How it was run: as §1
# [37] = target: Gal(b1-3)GalNAc(b1-4)[Neu5Ac(a2-3)]Gal(b1-4)Glc
# How it was run: as §1
# [38] = target: Gal(b1-3)GlcNAc
# How it was run: as §1
binder,measurement,setting,value
B1,glycan array binding signal (z-score),[1],-0.241
same,glycan array binding signal (z-score),[2],-0.22
same,glycan array binding signal (z-score),[3],-0.169
same,glycan array binding signal (z-score),[4],-0.181
same,glycan array binding signal (z-score),[5],-0.151
same,glycan array binding signal (z-score),[6],-0.268
same,glycan array binding signal (z-score),[7],0.47
same,glycan array binding signal (z-score),[8],-0.218
same,glycan array binding signal (z-score),[9],-0.237
same,glycan array binding signal (z-score),[10],0.162
same,glycan array binding signal (z-score),[11],-0.137
same,glycan array binding signal (z-score),[12],-0.243
same,glycan array binding signal (z-score),[13],-0.27
same,glycan array binding signal (z-score),[14],-0.055
same,glycan array binding signal (z-score),[15],-0.205
same,glycan array binding signal (z-score),[16],-0.272
same,glycan array binding signal (z-score),[17],-0.19
same,glycan array binding signal (z-score),[18],-0.367
same,glycan array binding signal (z-score),[19],-0.196
same,glycan array binding signal (z-score),[20],-0.072
same,glycan array binding signal (z-score),[21],-0.144
same,glycan array binding signal (z-score),[22],-0.167
same,glycan array binding signal (z-score),[23],-0.213
same,glycan array binding signal (z-score),[24],-0.119
same,glycan array binding signal (z-score),[25],-0.206
same,glycan array binding signal (z-score),[26],-0.205
same,glycan array binding signal (z-score),[27],-0.166
same,glycan array binding signal (z-score),[28],-0.204
same,glycan array binding signal (z-score),[29],-0.233
same,glycan array binding signal (z-score),[30],-0.108
same,glycan array binding signal (z-score),[31],-0.227
same,glycan array binding signal (z-score),[32],-0.24
same,glycan array binding signal (z-score),[33],-0.27
same,glycan array binding signal (z-score),[34],-0.264
same,glycan array binding signal (z-score),[35],-0.118
same,glycan array binding signal (z-score),[36],-0.224
same,glycan array binding signal (z-score),[37],-0.257
same,glycan array binding signal (z-score),[38],-0.198
